Source: PubChem BioAssay AID720542 (National Center for Advancing Translational Sciences (NCATS), 2013)
Among all 360,000 compounds or so, about 740 (0.21%) were called active. The shares of active, inactive and inconclusive entries below differ from those in the screen. Calls come from the whole dose curve; as a rule, active = well fitted inhibition curve with a large enough effect; inconclusive = small, poorly fitted or top-dose-only effect; inactive = no such curve, though single readings can be large or run the other way. No potency is given beside an inconclusive call; the fits are too rough.

Test system: Plasmodium falciparum AMA1 (3D7) - RON2 peptide interaction
Assay: qHTS for Inhibitors of AMA1-RON; Towards Development of Antimalarial Drug Lead: Primary Screen; note: nearly all actives have a fitted effect of over 45% in size;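 for activity change, negative = inhibition: 0% = vehicle wells and -100% = peptide control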
Conditions: AlphaScreen AMA1-biotinylated RON2 peptide binding; activity change, negative = inhibition: at 58.2 µM (top of the series) unless noted
Method in brief: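 AMA1 (3D7) with his tag at 25 nM final met compounds first, then biotinylated RON2 peptide at 25 nM; detection used donor plus acceptor beads, 10 µg/mL apiece, read by AlphaScreen after 30 min at room temperature.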
Potency is the fitted concentration of half-maximal effect; tags give direction and shape of the fitted curve.

SMILES	activity change, negative = inhibition	Potency
O=C(Nc1ccccc1)Nc1ccc(Cl)nc1Cl	inactive: 0.441%	
Nc1ccc(C2(c3ccc(N)cc3)CCCCC2)cc1		inconclusive [inhibitor, single point]
C=CCN1C=C2C(=O)C(C)(OC(=O)c3cnc4ccccc4n3)C(=O)C=C2C=C1/C=C/COC (centres undefined)		inconclusive [inhibitor, single point]
Nc1ccc2nc(-c3ccccn3)[nH]c2c1		inconclusive [inhibitor, single point]
Cc1[nH]c2ccc(OC(F)(F)F)cc2c1CCNCc1cccc([N+](=O)[O-])c1		inconclusive [inhibitor, single point]
O=C(NCCNC1CCC(c2ccccc2)CC1)c1ccc(F)cc1 (centres undefined)		inconclusive [inhibitor, partial curve]
CCOC(=O)C1=NNC(C(=O)c2ccc(OC)cc2)C1c1ccccc1 (centres undefined)	inactive: -6.35%	
O=C(COc1cccnc1[N+](=O)[O-])c1c[nH]c2ccccc12	inactive: 0.536%	
COC(=O)c1ccc(NCc2c(O)ccc(O)c2Br)cc1Cl		inconclusive [inhibitor, partial curve]
CC(c1ccccc1)N1C(=O)/C(=C/c2ccncc2)SC1=S (centres undefined)		inconclusive [inhibitor, single point]
Oc1ccc(Cl)cc1N=Nc1ccccc1		inconclusive [inhibitor, partial curve]
COc1ccc(N=Nc2cc(OC)c(N)cc2OC)cc1		inconclusive [inhibitor, single point]
COc1ccc(N=Cc2ccc(-c3ccccc3)o2)cc1		inconclusive [inhibitor, single point]
Cc1ccc(C(C(=O)Nc2ccc3c(c2)OCO3)N(C)C(=O)Cc2c[nH]c3ccccc23)cc1 (centres undefined)		inconclusive [inhibitor, single point]
COc1ccc(OC)c(CCNC(=O)Cn2nc(C)c3c(C)n(-c4ccc(C)cc4)nc3c2=O)c1	inactive: -9.25%	
CCc1ccc(Nc2ccc(S(=O)(=O)N3CCOCC3)cc2[N+](=O)[O-])cc1		inconclusive [inhibitor, partial curve]
NCCc1ccc(O)c(O)c1		inconclusive [inhibitor, full curve]
Clc1ccc(SCCOCCN2CCCCCC2)cc1		inconclusive [inhibitor, partial curve]
CC1CCCN(C(=O)CN(C)S(=O)(=O)c2cccc3nsnc23)C1 (centres undefined)	inactive: -0.51%	
Cc1ccc(NS(=O)(=O)c2ccc(NC(=O)c3ccc(Br)o3)cc2)c(C)c1		inconclusive [inhibitor, full curve, poor fit]
COc1ccc2nc(NC(=O)Nc3ccccc3OC)sc2c1	inactive: -2.45%	
CCCCSC(=S)N(C)C1CCS(=O)(=O)C1 (centres undefined)	inactive: -11.3%	
CCCc1ccc(C(=O)NNc2ccccc2F)cc1	inactive: -9.35%	
N#Cc1nc(-c2ccco2)oc1N1CCN(c2ccccc2)CC1		inconclusive [inhibitor, single point]
N#CCOc1ccccc1/C=C/c1nc2ccccc2c(=O)[nH]1		inconclusive [inhibitor, full curve, poor fit]

SMILES	activity change, negative = inhibition	Potency
NS(=O)(=O)c1cc(Cl)c(NC(=O)COC(=O)c2ccccn2)c(Cl)c1		inconclusive [inhibitor, single point]
COc1ccc(NC(=O)NCCCCc2ccccc2)cc1	inactive: -14.8%	
CCOc1ccc(N2CC(C(=O)NC3CCSC3=O)CC2=O)cc1 (centres undefined)	inactive: -10.1%	
Cn1c(-c2cc3ccccc3oc2=O)nc2ccccc21	inactive: 4.59%	
CCCC(c1nnnn1Cc1cccs1)N1CCN(c2ccc(OC)cc2)CC1 (centres undefined)		inconclusive [inhibitor, single point]
CCCNC(=O)Nc1ccc2c(c1)nc(C)n2C	inactive: -5.8%	
COc1ccc(/C=C2/C(=O)N(c3ccccc3)N=C2C)cc1		inconclusive [inhibitor, single point]
CCOC(=O)C1=C(CSc2nc3c(cc2C#N)CN(C)CC3)OC(N)=C(C#N)C1c1ccc(Cl)cc1 (centres undefined)		inconclusive [inhibitor, single point]
COc1ccccc1NC(=O)c1c(C)nn(-c2ccccc2)c1Cl	inactive: 19.8%	
O=C(CN1CCOc2ccccc21)N1CCC(Cc2ccccc2)CC1		inconclusive [inhibitor, single point]
CCOc1ccc(CNc2ccc(N3CCCC3)cc2)cc1		inconclusive [inhibitor, single point]
CC(C)=CCCC(C)CN1CCC(N2CCC(C(=O)N3CCOCC3)CC2)CC1 (centres undefined)	inactive: -7.07%	
Cc1cc(Nc2ccc(F)c(F)c2)nc(-c2ccccc2O)n1	inactive: 0%	
COc1ccc(/C=C/C(=O)c2ccc3c4c(cccc24)CC3)cc1		inconclusive [inhibitor, partial curve]
CC(C)OCCCN1CN(S(=O)(=O)c2cccs2)c2nc3ccccc3nc21	inactive: 0.989%	
O=c1cc(-c2ccc(O)cc2)oc2cc(O)c(C3OC(CO)C(O)C(O)C3O)c(O)c12 (centres undefined)		inconclusive [inhibitor, partial curve]
CN(Cc1ccccc1)Cc1nc2scc(-c3ccccc3)c2c(=O)[nH]1		inconclusive [inhibitor, partial curve]
CCNC(=O)N1c2ccc(OCC)cc2C(C)=CC1(C)C		inconclusive [inhibitor, single point]
Cc1ccc(/C=N/N2CCN(c3ccccn3)CC2)cc1		inconclusive [inhibitor, partial curve]
O=S(=O)(CCOc1ccccc1)c1nc2ccccc2[nH]1	inactive: 1.19%	
Nc1ccc2c(c1)C(O)c1ccc(Cl)cc1-2 (centres undefined)		inconclusive [inhibitor, partial curve]
CCCNC(=O)COc1coc(CN2CCN(c3ccccc3)CC2)cc1=O	inactive: -3.08%	
O=C(CN1CCN(Cc2ccc3c(c2)OCO3)CC1)NCC(F)(F)F	inactive: -23.7%	
CC1CCN(C(c2ccc(N(C)C)cc2)c2nnnn2C(C)(C)C)CC1 (centres undefined)		inconclusive [inhibitor, single point]
